From the supplement of paper PMC12889115
This is one part of the list. Cut-off read from the data, not from the text of the source: active = 25% or less and inactive = the rest. Many values rest on one well or one pass, so single values are uncertain.

How the values were obtained:
[1] = system: Salmonella enterica serovar Typhimurium SL1344; test: bacterial growth OD600 after 18 h in MHB with 0.5 µg/mL polymyxin B; higher = more bacterial growth (less inhibition); details: 25 µM; polymyxin B 0.5 µg/mL; system: broth
Procedure: (§1)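 Secondary screen of the 553 primary hits at 25 µM. (i) S. Typhimurium SL1344 grown in Mueller-Hinton broth with 0.5 µg/mL polymyxin B, OD600 read after 18 h. (ii) SAFIRE assay: RAW 264.7 macrophages infected with S. Typhimurium sifB::gfp (MOI 30); compound added 2 h post-infection; cells fixed at 18 h; GFP-positive pixel fraction per macrophage imaged by confocal microscopy and expressed as % of DMSO control.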

[2] = system: Salmonella enterica serovar Typhimurium SL1344; test: intramacrophage bacterial GFP load (SAFIRE), percent of DMSO control (% of DMSO); higher = more intracellular bacteria (less inhibition); details: 25 µM; system: infected RAW 264.7 macrophages
Procedure: as §1
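Throughout, for bacterial growth OD600 after 18 h in MHB with 0.5 µg/mL polymyxin B: polymyxin B level opens the outer membrane while sparing the inner membrane, with novobiocin wells as reference growth inhibitor.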
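Throughout, for intramacrophage bacterial GFP load (SAFIRE), percent of DMSO control: compounds tested were the hits of an earlier 50 µM broth growth screen of a drug-like diversity library run with polymyxin B.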

Row | SMILES | bacterial growth OD600 [1] | intramacrophage bacterial GFP load [2]
1 | Cc1nonc1CN(C)C(=O)CC(c1ccccc1)c1cccc(Cl)c1 (stereo not drawn) | 0.181 | inactive: 39.6
2 | CCOC(=O)C1(Cc2ccccc2Cl)CCN(C(=O)c2ccsc2)CC1 | 0.005 | inactive: 42.8
3 | COc1cccc(NC(=O)CCC2CCN(S(=O)(=O)c3cc(C)cs3)CC2)c1 | -0.002 | inactive: 119
4 | O=C(c1ccc(Oc2ccccc2)cc1)C1CCCN(C(=O)CN2C(=O)CSC2=O)C1 (stereo not drawn) | 0.002 | inactive: 85.8
5 | Cc1ccc(OCC(=O)N2CCC(C(Cc3ccccc3)N(C)C(=O)c3ccoc3C)CC2)cc1 (stereo not drawn) | -0.001 | inactive: 88.8
6 | COc1cccc(CC(C2CCN(C(=O)/C=C/c3ccccc3F)CC2)N(C)C(=O)CC(C)C)c1 (stereo not drawn) | -0.003 | active: 12.7
7 | O=C1OCCN1CCNc1ccc(-c2nc(-c3cccc(Cl)c3)no2)cn1 | -0.002 | inactive: 298
8 | COc1ccc2cc(C(=O)C3CCCN(C(=O)c4ccoc4C)C3)ccc2c1 (stereo not drawn) | -0.002 | inactive: 72.2
9 | CCOC(=O)C1(Cc2ccccc2C)CCCN(S(=O)(=O)c2c(C)noc2C)C1 (stereo not drawn) | -0.005 | inactive: 80.2
10 | O=C(c1csc(-c2cccs2)n1)N1CCCC(CO)(Cc2cccc(Cl)c2)C1 (stereo not drawn) | -0.005 | inactive: 109
11 | CC(C)CC(=O)C1CCCN(c2nncc(-c3cccc(Cl)c3)n2)C1 (stereo not drawn) | 0.007 | inactive: 152
12 | CC(C)N1CCC(C(=O)N2CCCC(CCc3ccc(F)c(F)c3)C2)CC1 (stereo not drawn) | 0.001 | inactive: 27.3
13 | Cc1ccc(CN2CCCC2C(=O)Nc2cccc(-n3cccn3)c2)s1 (stereo not drawn) | 0.005 | inactive: 108
14 | O=C(c1coc(COc2ccc3c(c2)OCO3)n1)N1CCCC(c2ccccc2)C1 (stereo not drawn) | -0.002 | inactive: 111
